# Assay results as given in the supplement of paper PMC11417369.
# ± gives the standard deviation of the averaged measurements. This is one part of the list.
# Test system: PfAP2-I AP2 domain 3 (GST-tagged)
# Experiment: gcPBM binding intensity (ln(normalized median fluorescence intensity)); higher = stronger DNA binding
# Method in brief: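 An Agilent 4 × 180k array carrying primer-extended double-stranded 36-bp intergenic genomic probes and negative controls received GST-tagged P. falciparum DNA-binding domains expressed in E. coli, about 25 μg on average, for 1 h. The binding buffer contained 1× PBS, 1% milk, 0.2 mg/ml BSA, 0.5% salmon testes DNA and 0.03% Triton X-100. Binding intensity is the top Masliner-normalised natural-log median intensity across replicate spots of either probe orientation, read after Alexa488 anti-GST antibody staining and a 488 nm scan.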
row,Sequence,gcPBM binding intensity (ln)
1,TATTTATTTATAAATGCATGTCGCTCTTTTTATTAC [TGCATGCA_site626],7.66 ± 0.68
2,ATATATATATATATGTGTACATATAAGATAGAAGAA [XGTACX_site3198],9.46 ± 0.36
3,ATTATTATAGATATAACACACATAATTACATACTTA [CACACA_site6837],7.97 ± 0.14
4,TCCATAAATAATTGTAGTACACATACTATGTGACAT [XGTACX_site7268],8 ± 0.24
5,AAAAGTAAAAAAAGCACACACGAAAAAAAATAAAAA [CACACA_site5264],8.13 ± 0.52
6,TATTAAAAAAAAAAATAAAAAAATAAAATAAAATAA [CACACA_negctrl_site580],7.44 ± 0.69
7,TATATTTACTCTAAGTGTACATATTATTTTATAATA [XGTACX_site2046],7.61 ± 0.22
8,TTTTTTTTTTTTATTTGTACACATTTTCATATTTTT [XGTACX_site4406],8.08 ± 0.67
9,TATATATATATGTGCACACATAAAGATATTATTTTT [CACACA_site3733],10.2 ± 0.042
10,AATATATCATAATGATGTACAAGTAAAACCGTTACA [XGTACX_site4280],7.66 ± 0.61
11,AATATATATATATATACATGCATATATTCCTTCCTT [TGCATGCA_site890],7.81 ± 0.72
12,ATTCTTTTAAACAGTACACACACACCGATATATATA [CACACA_site8213],8.44 ± 0.71
13,TTTGTGCCTATAAATTAACACACAGAAATATATAGA [CACACA_site8175],9.025 ± 0.064
14,AAAAACTTATATGATACACACGATAAACAAAATAAA [CACACA_site1039],7.91 ± 0.42
15,TAACACATAAATAAATATATACATATATATAAAATA [CACACA_negctrl_site375],7.3 ± 0.27
16,ATAAAATAAAATTGGTGTACTTTTGATAAAATAAAA [XGTACX_site4264],7.84 ± 0.28
17,GATCTATATATCATTACACACTTGAATTACTTAAAA [CACACA_site21],7.64 ± 0.67
18,CAAAAATACATTATAATAATATGCACAATAATAAAT [XGTACX_negctrl_site263],9.96 ± 1.1
19,ACAAAATTTACAAAATGTACAAAGTATGTGTTTTAT [XGTACX_site6462],7.58 ± 0.49

row,Sequence,gcPBM binding intensity (ln)
1,ATATTTTTTTTTTTCACACACATTTATATTGTATTA [CACACA_site5695],8.01 ± 0.79
2,AGAAAAAAGAGGGATACACACAAACATATATTTATA [CACACA_site7122],7.66 ± 0.53
3,CACCCTTTGTTTTAGAGTACATATGTATATACGTAA [XGTACX_site7964],8.03 ± 0.51
4,GATTAAAATCAAAGGTGTACGCACAAATAAGTCCCA [XGTACX_site4360],8.34 ± 0.71
5,TATATATATTTATGTACACACATATATACCTTTCAT [CACACA_site5479],8.28 ± 0.42
6,TATTAATTATAAGATGCATGTGCAAAAATATGTTCC [TGCATGCA_site51],9.29 ± 0.4
7,ATAATATTTTATTATACATGCAAATTATTATATATA [TGCATGCA_site40],7.58 ± 0.56
8,TTTCTTTGTATTTATAGTACATATTTTAATAACTGC [XGTACX_site6673],7.76 ± 0.31
9,TAAAAATTAAAAAGGGTGCAAAAAAAAAAAAAAAAA [GTGCAC_site9733],11 ± 0.61
10,AAAAGACATTTTTTTTTATAAATACACACGTACGTG [TGCATGCA_negctrl_site281],7.79 ± 0.67
11,AGGAGGAACAAACAAAACAATAAAAATTATAATAAA [GTGCAC_negctrl_site206],7.92 ± 0.49
12,TTCCAAGAAATAATAGTGCATTATTCATTTTAATAA,11.5 ± 0.42
13,TTCAAAGACACAATCACACACATACATAAATATACA [CACACA_site687],7.81 ± 0.35
14,AATATACATAACAAGGTGCAAAAAATATTGTTCATA [GTGCAC_site9499],10.4 ± 0.26
15,TTATTATTATGATTATTATGATGATTATACAACTGT [TGCATGCA_negctrl_site241],7.53 ± 0.61
16,ATTATATTAATTTATAGTACAATATTTATATATATG [XGTACX_site4668],7.54 ± 0.28
17,TATATATTACTTTTTTGTACGAATTTTACAACTACG [XGTACX_site3473],7.87 ± 0.39
18,TATTAAAATATTCTCACACACCAAAATATGTATGTA [CACACA_site6565],7.5 ± 0.38
19,AAAAAAAAAAAAAAAAAAAGAAAAGAAAATAGGGTT [GTGCAC_negctrl_site421],8.96 ± 0.22

row,Sequence,gcPBM binding intensity (ln)
1,GCCATTAATTTATACACACACATTATAACTTTTTAT [CACACA_site6492],8.29 ± 0.49
2,TTAAATAAAAAAATAACACACATATAAATCTATATG [CACACA_site7482],7.43 ± 0.48
3,TATCAGCAATGGAAAACATGCAAAAAATTAATATAT [TGCATGCA_site623],7.95 ± 0.74
4,TCTTCAAAGACACAATCACACACATACATAAATATA [CACACA_site8128],7.79 ± 0.46
5,ATCAAAAATGTTATATATATATATATATATATATAT [TGCATGCA_negctrl_site71],9.41 ± 0.77
6,AATACGTTTCAAAAATGTACACATATATCATAAATA [XGTACX_site8962],7.76 ± 0.56
7,TGATTCTTTTCAAAGTGTACAGTAATTTTTATGTAA [XGTACX_site8452],7.59 ± 0.4
8,TATATAATTCAAAAATGTACATGAAATATAAATATT [XGTACX_site7984],7.81 ± 0.67
9,AAATATATTGCATATATACACACGTATATATATTAA [CACACA_site2759],7.93 ± 0.47
10,ATATCAAGCTATGAGAAAAAAAAAAAGAAAAAAAAA [CACACA_negctrl_site1370],7.61 ± 0.83
11,AAGTTTTCTTAAAGATGTACTTTTTAAAAATAAAAT [XGTACX_site3063],7.7 ± 0.29
12,ATATTATAAATTATAGGTACACACAAAAAAAAAAAG [XGTACX_site2637],8.3 ± 0.25
13,TATATTTATTTTTAATGTACATATTTAAGAAAACTA [XGTACX_site4920],7.83 ± 0.16
14,GACTCATTAAGGATTATTCCTAATGATCAAAAGAAC [CACACA_negctrl_site515],7.75 ± 0.6
15,AACTTGTATTTATACACACACACACTAGCTTTTTTT [CACACA_site5132],7.98 ± 0.64
16,AGAATTAAAAACAGTTGTACAAAAAGTTGTATAAAT [XGTACX_site411],7.96 ± 0.54
17,AGTAATAAATTTTATACATGCATAAAAAAAAAAAAA [TGCATGCA_site661],8.29 ± 0.73
18,TATAGCTTTCATTATACACACATCAAAAATTTAAAT [CACACA_site227],7.93 ± 0.46
